# Test results: PubChem BioAssay AID1461 (National Center for Advancing Translational Sciences (NCATS), 2008)
# Among all 220,000 compounds or so, about 2,300 (1%) were called active. The shares of active, inactive and inconclusive entries below differ from those in the screen. Calls follow the shape of the dose curve; as a rule, active = well fitted inhibition curve with a large enough effect; inconclusive = small, poorly fitted or top-dose-only effect, or effect the other way; inactive = no such curve, though single readings can be large or run the other way. A potency beside an inconclusive call is a rough fit, not a confirmed value.
# Biological target: Neuropeptide S receptor (Homo sapiens) (UniProt Q6W5P4)
# Chain of UniProt Q6W5P4 (Q6W5P4 whole entry, looked up): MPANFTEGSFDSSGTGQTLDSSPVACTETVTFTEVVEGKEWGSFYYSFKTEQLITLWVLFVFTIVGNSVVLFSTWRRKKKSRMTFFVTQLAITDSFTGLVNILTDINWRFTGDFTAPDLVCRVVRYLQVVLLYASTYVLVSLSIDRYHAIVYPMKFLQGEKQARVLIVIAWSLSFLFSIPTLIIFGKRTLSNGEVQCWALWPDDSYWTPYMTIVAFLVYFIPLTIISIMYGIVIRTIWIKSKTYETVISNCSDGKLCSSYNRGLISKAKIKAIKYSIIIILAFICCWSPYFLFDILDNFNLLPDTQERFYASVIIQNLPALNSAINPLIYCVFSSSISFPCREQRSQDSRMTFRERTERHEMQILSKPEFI
# Experiment: qHTS Assay for Antagonists of the Neuropeptide S Receptor: cAMP Signal Transduction; also: nearly all actives have a fitted effect of over 50% in size
# Details: CHO-NPSR cells, cAMP TR-FRET, antagonist mode; activity change, negative = inhibition: at 38.3 µM (top of the series) unless noted
# % is scaled to controls: 0 for no effect and ±100 for the full control effect; potency is read from the fitted curve at half-maximal effect; tags tell the direction and shape of the fitted curve.
SMILES,Potency,"activity change, negative = inhibition"
CCCCOC(=O)Nc1ccc(C(N)=O)cc1,inactive,
COc1ccc(NC(=O)c2cn(-c3ccccc3)nc2-c2cc3ccccc3o2)cc1,"inconclusive: 15.8 µM [inhibitor, partial curve]",
CCS(=O)(=O)Nc1cccc(C2=NN(S(=O)(=O)c3ccccc3)C(c3cccs3)C2)c1 (stereo not drawn),"inconclusive: 15.8 µM [inhibitor, partial curve]",
COc1cc(Br)cc(C2C3=C(CCCC3=O)N(c3ccc(F)cc3)C3=C2C(=O)CCC3)c1O,"inconclusive: 10 µM [activator, partial curve]",
COC(=O)c1cc(S(=O)(=O)n2nc(C)c(Br)c2C)c(Cl)cc1Cl,"inconclusive: 15.8 µM [inhibitor, single point]",
COc1ccc(NC(C)C(=O)Nc2ccc(C(C)(C)C)cc2)cc1Cl (stereo not drawn),"inconclusive: 12.6 µM [inhibitor, single point]",
CCOC(=O)C1=NN(C(=O)c2cccc(Br)c2)C(O)(C(C)(C)C)C1 (stereo not drawn),inactive,
N#Cc1cc(-c2ccccc2)cnc1Cl,"inconclusive: 25.1 µM [activator, single point]",
O=C(N/N=C/c1cccc([N+](=O)[O-])c1)c1cc2ccccc2o1,"inconclusive: 25.1 µM [inhibitor, single point]",
COc1ccc(-n2c(=S)[nH]c3cc(C(=O)NCCCN4CCCC4=O)ccc3c2=O)cc1,inactive,
CC(C)CC(c1nnnn1C1CCCC1)N1CCN(c2ccccc2F)CC1 (stereo not drawn),"inconclusive: 10 µM [inhibitor, partial curve]",
BrC(/C=N/Nc1nc(N2CCOCC2)nc(N2CCOCC2)n1)=C/c1ccccc1,inactive,
Cc1cccc(C(=O)Nc2ccnc(-c3cccnc3)n2)c1,inactive,
CC(C)COc1ccc(/C=C2/Sc3ccccc3C2=O)cc1,inactive,
COc1cc(-c2nc(Cc3c(F)cccc3Cl)no2)cc(OC)c1OC,"inconclusive: 12.6 µM [inhibitor, single point]",
COc1ccc(Cl)cc1NC(=S)NCCC(c1ccccc1)c1ccccc1,inactive,
O=C1N(Cc2cccc(Cl)c2)C[C@@H]2C[C@@H](c3cccc4ncccc34)N3CCC[C@@]123,"inconclusive: 7.94 µM [activator, partial curve]",
Cc1ccc(C#CC[N+]2(C)CCCCC2)cc1,"inconclusive: 15.8 µM [activator, single point]",
O=C(Cc1ccc([N+](=O)[O-])cc1)N1N=C2CCCCC2C1(O)C(F)(F)F (stereo not drawn),"inconclusive: 6.31 µM [activator, partial curve]",
CCN1c2ccccc2-c2nc3ccccc3n2C1c1ccccn1 (stereo not drawn),"inconclusive: 12.6 µM [inhibitor, partial curve]",
O=C(N1CCCCC1)N1CCN(C(c2ccccc2)c2ccccc2)CC1,"inconclusive: 12.6 µM [inhibitor, single point]",
O=C(NC1CCCc2ccccc21)C1CCC(CNS(=O)(=O)c2cccc3nsnc23)CC1 (stereo not drawn),"inconclusive: 20 µM [inhibitor, partial curve, poor fit]",
CCn1c(NC(=O)c2ccccc2)nc2ccccc21,"inconclusive: 12.6 µM [inhibitor, single point]",

SMILES,Potency,"activity change, negative = inhibition"
CN(C)Cc1ccc(F)cc1Sc1cc(Cl)ccc1Cl,"inconclusive: 12.6 µM [inhibitor, single point]",
Cc1ccc(C)c(Cn2c(C(=O)OC(C)C)cc3c2ccn3C)c1,"inconclusive: 10 µM [inhibitor, single point]",
O=c1cc(-c2ccncc2)oc2ccccc12,inactive,
O=C(Nc1ccc(F)cc1)Nc1cc(OCC(F)(F)F)cc(OCC(F)(F)F)c1,active: 12.6 µM,
CCOc1ccc(/C=C/[N+](=O)[O-])c2ccccc12,active: 10 µM,
O=C(NCC1CCCO1)c1ccc2c3n(nc2c1)-c1ccccc1CO3 (stereo not drawn),inactive,
Fc1c(F)c(F)c(/C=N/NC(=S)Nc2cccnc2)c(F)c1F,"inconclusive: 5.01 µM [inhibitor, full curve, poor fit]",
Cc1cc(C)nc(NC(=NCCc2c[nH]c3ccccc23)NC(=O)Nc2ccc(Cl)cc2)n1,active: 12.6 µM,
COc1cc(OC)c(C(=O)/C=C/c2ccccc2)c(O)c1O,"inconclusive: 10 µM [inhibitor, single point]",
Cn1nnnc1SCC(=O)NCC(=O)c1ccccc1,,inconclusive: -36% [inhibitor] [at 46.1 µM]
O=C1CC(=O)CC(c2ccco2)C1,"inconclusive: 25.1 µM [inhibitor, single point]",
CCN(CC)CCOc1ccc2c(c1)C(=NO)c1cc(OCCN(CC)CC)ccc1-2,"inconclusive: 12.6 µM [inhibitor, single point]",
N#Cc1ccccc1NC(=O)COC(=O)COc1ccccc1[N+](=O)[O-],inactive,
COc1ccccc1-n1c(SCC(=O)c2ccc(O)cc2O)nc2cc([N+](=O)[O-])ccc21,inactive,
COc1cc2nc(SCc3ccc(F)cc3)n(Cc3cccs3)c(=N)c2cc1OC,"inconclusive: 12.6 µM [inhibitor, single point]",
Cc1cc(-c2nc3c4c5c(sc4[nH]c(=O)n3n2)CCC5)c(C)o1,inactive,
C(=C1/CCCC2=C1Nc1ncnn1C2c1ccccc1)/c1ccccc1 (stereo not drawn),"inconclusive: 6.31 µM [inhibitor, partial curve]",
COc1ccc(Nc2ncnc3sc(-c4ccccc4)cc23)cc1,"inconclusive: 10 µM [inhibitor, single point]",
CCCCC(=O)Nc1sc2c(c1-c1nc3ccccc3s1)CCN(C(C)=O)C2,"inconclusive: 7.94 µM [inhibitor, partial curve]",
CCCCN(CCCC)C(=O)/C=C/c1cccc([N+](=O)[O-])c1,"inconclusive: 12.6 µM [inhibitor, single point]",
CC(C)(C)c1ccc(/C=C/C(=O)c2ccc(NC3=NCCCS3)cc2)cc1,active: 7.94 µM,
Cc1ccc(Cl)cc1N1CCN(S(=O)(=O)c2ccc3c(c2)oc(=O)n3C)CC1,"inconclusive: 0.251 µM [inhibitor, full curve, poor fit]",
CCOc1ccc2[nH]c(=O)c(C(c3nnnn3Cc3ccco3)N3CCN(C)CC3)cc2c1 (stereo not drawn),"inconclusive: 3.16 µM [activator, full curve]",

SMILES,Potency,"activity change, negative = inhibition"
OCCN1CCN(C(c2cccs2)c2ccc3cccnc3c2O)CC1 (stereo not drawn),active: 10 µM,
COc1cccc(-n2c(C)cc(/C=C3/C(=N)N4C(=NC3=O)SN=C4S(C)(=O)=O)c2C)c1,inactive,
CCCNC(=O)c1c[nH]c2ccc(S(=O)(=O)N(C)c3ccc(OCC)cc3)cc2c1=O,"inconclusive: 15.8 µM [inhibitor, partial curve, poor fit]",
O=C(c1ccc(Cn2c(=O)[nH]c3ccccc3c2=O)cc1)N1CCN(c2ccc(Cl)cc2)CC1,"inconclusive: 10 µM [inhibitor, partial curve]",
Cn1c(C(=O)N(Cc2ccccc2)Cc2ccccn2)cc2sccc21,"inconclusive: 10 µM [activator, single point]",
O=c1oc2ccccc2n1CCCCCn1c(=O)oc2ccccc21,"inconclusive: 25.1 µM [inhibitor, single point]",
COc1ccc(C2C(C(C)=O)=C(O)C(=O)N2c2cccnc2)c(OC)c1 (stereo not drawn),"inconclusive: 25.1 µM [inhibitor, single point]",
Cc1ccccc1-n1c(C)cc(/C=N/NC(=O)c2ccc(CN3CCOCC3)cc2)c1C,"inconclusive: 5.01 µM [activator, partial curve, poor fit]",
O=C(Nc1ccn(Cc2c(F)c(F)cc(F)c2F)n1)c1ccc(COc2ccc(Cl)cc2Cl)o1,"inconclusive: 10 µM [inhibitor, single point]",
CCc1ccc(NCc2cc3c(C)nn(-c4ccccc4)c3[nH]c2=O)cc1,"inconclusive: 10 µM [inhibitor, single point]",
CCCc1cc(-c2[nH]ncc2-c2ccc(C(=O)OCC)o2)c(O)cc1O,"inconclusive: 12.6 µM [inhibitor, partial curve, poor fit]",
CCc1cc(OCCCSc2nc(C)cc(=O)[nH]2)ccc1Cl,inactive,
O=C(OCc1cc2ccccc2[nH]c1=O)c1ccccc1,"inconclusive: 12.6 µM [inhibitor, partial curve]",
CC(C)Oc1cccc(-c2cc(C(=O)NC(=S)N(C)c3ccccc3C(=O)O)c3ccccc3n2)c1,inactive,
Cc1ccc(C#N)c(SCC(=O)Nc2nccs2)n1,"inconclusive: 25.1 µM [inhibitor, single point]",
COc1ccc(-c2nn(-c3ccccc3)cc2C2CC(c3cccs3)=NN2C(=O)CCCC(=O)O)cc1 (stereo not drawn),"inconclusive: 12.6 µM [inhibitor, partial curve]",
CC1CCCN(C(=O)CSc2nnc3n(C4CCCC4)c(=O)c4ccccc4n23)C1 (stereo not drawn),"inconclusive: 3.98 µM [inhibitor, partial curve, poor fit]",
Cc1ccnc(NC(=O)C2CCN(S(=O)(=O)c3cccc4nsnc34)CC2)c1,inactive,
Cc1ccc(NC(=O)COC(=O)c2cc(C)nc3ccccc23)c([N+](=O)[O-])c1,inactive,
CCc1ccccc1NC(=O)CN(c1cccc(OC)c1)S(C)(=O)=O,"inconclusive: 15.8 µM [inhibitor, single point]",
COc1ccccc1C1SCCN1S(=O)(=O)c1cccc(C(F)(F)F)c1 (stereo not drawn),"inconclusive: 10 µM [inhibitor, single point]",
COc1ccc(Cc2nn3c(-c4ccccc4Br)nnc3s2)cc1,"inconclusive: 2 µM [inhibitor, partial curve]",
